# The supplement of paper PMC8728848
# The other results are listed elsewhere or left out.
# B1: SP16665A-bot-344-23-344 (Bacteroides ovatus) (protein)
# chain: SDNEFPDFDYQTVYFANQYGLRTIELGESEFVDNTLDNQHKMVIKAAWGGGYTNRNNVVINFKVDESLCDNLYFKDTDQPLVPMPASYYTLASDRIAIPKGQIMAGVEVQLTDDFFADEKSISENYVIPLLMTNVQGADSILQGKPVVENPVLTNAGDWSILPQNFVLYAVKYVNPWHGEYLRRGIDHATVAGTSKDIIRHEQFVENDEVVNISTKSMKDNLLTLKTKDESGKDISYTVRLSFAEDGSCTVHSGSQNVVVSGSGKFVSKGEKNSLGGKDRNAIYLDYTVNLTDNNIQLATKDTLVLRTRNVYGGKSLEVVRK
# What was measured:
# Assay in all cases: glycan array binding signal (z-score within array); higher = stronger binding
# Conditions in all cases: glycan notation: IUPAC condensed, linker removed
# GlcNAc(b1-3)Gal(b1-4)Glc = target: GlcNAc(b1-3)Gal(b1-4)Glc
# Summary of the method: (§1)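 From the Consortium for Functional Glycomics database, 3228 arrays were curated, keeping only those whose protein sequence was available. Binding is given as a within-array Z-score averaged across arrays sharing a protein sequence and across linkers. Negative Z-scores can be read as non-binding.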
# [1] = target: GlcNAc(b1-3)Gal(b1-4)GlcNAc
# Summary of the method: as §1
# [2] = target: GlcNAc(b1-3)Gal(b1-4)GlcNAc(b1-2)Man(a1-3)[GlcNAc(b1-3)Gal(b1-4)GlcNAc(b1-2)Man(a1-6)]Man(b1-4)GlcNAc(b1-4)GlcNAc
# Summary of the method: as §1
# [3] = target: GlcNAc(b1-3)Gal(b1-4)GlcNAc(b1-2)Man(a1-3)[GlcNAc(b1-3)Gal(b1-4)GlcNAc(b1-2)Man(a1-6)]Man(b1-4)GlcNAc(b1-4)[Fuc(a1-6)]GlcNAc
# Summary of the method: as §1
# [4] = target: GlcNAc(b1-3)Gal(b1-4)GlcNAc(b1-2)[GlcNAc(b1-3)Gal(b1-4)GlcNAc(b1-6)]Man(a1-6)[GlcNAc(b1-3)Gal(b1-4)GlcNAc(b1-2)Man(a1-3)]Man(b1-4)GlcNAc(b1-4)GlcNAc
# Summary of the method: as §1
# [5] = target: GlcNAc(b1-3)Gal(b1-4)GlcNAc(b1-3)Gal(b1-4)GlcNAc
# Summary of the method: as §1
# [6] = target: GlcNAc(b1-3)Gal(b1-4)GlcNAc(b1-3)Gal(b1-4)GlcNAc(b1-2)Man(a1-3)[GlcNAc(b1-3)Gal(b1-4)GlcNAc(b1-3)Gal(b1-4)GlcNAc(b1-2)Man(a1-6)]Man(b1-4)GlcNAc(b1-4)GlcNAc
# Summary of the method: as §1
# [7] = target: GlcNAc(b1-3)Gal(b1-4)GlcNAc(b1-3)Gal(b1-4)GlcNAc(b1-2)Man(a1-3)[GlcNAc(b1-3)Gal(b1-4)GlcNAc(b1-3)Gal(b1-4)GlcNAc(b1-2)Man(a1-6)]Man(b1-4)GlcNAc(b1-4)[Fuc(a1-6)]GlcNAc
# Summary of the method: as §1
# [8] = target: GlcNAc(b1-3)Gal(b1-4)GlcNAc(b1-3)Gal(b1-4)GlcNAc(b1-2)[GlcNAc(b1-3)Gal(b1-4)GlcNAc(b1-3)Gal(b1-4)GlcNAc(b1-6)]Man(a1-6)[GlcNAc(b1-3)Gal(b1-4)GlcNAc(b1-3)Gal(b1-4)GlcNAc(b1-2)Man(a1-3)]Man(b1-4)GlcNAc(b1-4)[Fuc(a1-6)]GlcNAc
# Summary of the method: as §1
# [9] = target: GlcNAc(b1-3)Gal(b1-4)GlcNAc(b1-3)Gal(b1-4)GlcNAc(b1-3)Gal(b1-4)GlcNAc(b1-2)Man(a1-3)[GlcNAc(b1-3)Gal(b1-4)GlcNAc(b1-3)Gal(b1-4)GlcNAc(b1-3)Gal(b1-4)GlcNAc(b1-2)Man(a1-6)]Man(b1-4)GlcNAc(b1-4)GlcNAc
# Summary of the method: as §1
# [10] = target: GlcNAc(b1-3)Gal(b1-4)GlcNAc(b1-3)Gal(b1-4)GlcNAc(b1-3)Gal(b1-4)GlcNAc(b1-2)Man(a1-3)[GlcNAc(b1-3)Gal(b1-4)GlcNAc(b1-3)Gal(b1-4)GlcNAc(b1-3)Gal(b1-4)GlcNAc(b1-2)Man(a1-6)]Man(b1-4)GlcNAc(b1-4)[Fuc(a1-6)]GlcNAc
# Summary of the method: as §1
# [11] = target: GlcNAc(b1-3)Gal(b1-4)GlcNAc(b1-3)Gal(b1-4)GlcNAc(b1-3)Gal(b1-4)GlcNAc(b1-2)[GlcNAc(b1-3)Gal(b1-4)GlcNAc(b1-3)Gal(b1-4)GlcNAc(b1-3)Gal(b1-4)GlcNAc(b1-6)]Man(a1-6)[GlcNAc(b1-3)Gal(b1-4)GlcNAc(b1-3)Gal(b1-4)GlcNAc(b1-3)Gal(b1-4)GlcNAc(b1-2)Man(a1-3)]Man(b1-4)GlcNAc(b1-4)[Fuc(a1-6)]GlcNAc
# Summary of the method: as §1
# [12] = target: GlcNAc(b1-3)Gal(b1-4)GlcNAc(b1-3)Gal(b1-4)GlcNAc(b1-3)Gal(b1-4)GlcNAc(b1-3)Gal(b1-4)GlcNAc(b1-2)Man(a1-3)[GlcNAc(b1-3)Gal(b1-4)GlcNAc(b1-3)Gal(b1-4)GlcNAc(b1-3)Gal(b1-4)GlcNAc(b1-3)Gal(b1-4)GlcNAc(b1-2)Man(a1-6)]Man(b1-4)GlcNAc(b1-4)GlcNAc
# Summary of the method: as §1
# [13] = target: GlcNAc(b1-3)Gal(b1-4)GlcNAc(b1-3)Gal(b1-4)GlcNAc(b1-3)Gal(b1-4)GlcNAc(b1-3)Gal(b1-4)GlcNAc(b1-2)Man(a1-3)[GlcNAc(b1-3)Gal(b1-4)GlcNAc(b1-3)Gal(b1-4)GlcNAc(b1-3)Gal(b1-4)GlcNAc(b1-3)Gal(b1-4)GlcNAc(b1-2)Man(a1-6)]Man(b1-4)GlcNAc(b1-4)[Fuc(a1-6)]GlcNAc
# Summary of the method: as §1
# [14] = target: GlcNAc(b1-3)Gal(b1-4)GlcNAc(b1-3)Gal(b1-4)GlcNAc(b1-3)Gal(b1-4)GlcNAc(b1-3)Gal(b1-4)GlcNAc(b1-2)[GlcNAc(b1-3)Gal(b1-4)GlcNAc(b1-3)Gal(b1-4)GlcNAc(b1-3)Gal(b1-4)GlcNAc(b1-3)Gal(b1-4)GlcNAc(b1-6)]Man(a1-6)[GlcNAc(b1-3)Gal(b1-4)GlcNAc(b1-3)Gal(b1-4)GlcNAc(b1-3)Gal(b1-4)GlcNAc(b1-3)Gal(b1-4)GlcNAc(b1-2)Man(a1-3)]Man(b1-4)GlcNAc(b1-4)[Fuc(a1-6)]GlcNAc
# Summary of the method: as §1
# [15] = target: GlcNAc(b1-3)Gal(b1-4)GlcNAc(b1-3)Gal(b1-4)GlcNAc(b1-3)GalNAc
# Summary of the method: as §1
# [16] = target: GlcNAc(b1-3)Gal(b1-4)GlcNAc(b1-3)GalNAc
# Summary of the method: as §1
# [17] = target: GlcNAc(b1-3)Gal(b1-4)GlcNAc(b1-3)[GlcNAc(b1-3)Gal(b1-4)GlcNAc(b1-3)]GalNAc
# Summary of the method: as §1
# [18] = target: GlcNAc(b1-3)Gal(b1-4)GlcNAc(b1-6)[Gal(b1-3)]GalNAc
# Summary of the method: as §1
# [19] = target: GlcNAc(b1-3)Gal(b1-4)GlcNAc(b1-6)[GlcNAc(b1-3)Gal(b1-3)]GalNAc
# Summary of the method: as §1
# [20] = target: GlcNAc(b1-3)Gal(b1-4)GlcNAc(b1-6)[GlcNAc(b1-3)]Gal(b1-4)GlcNAc
# Summary of the method: as §1
# GlcNAc(b1-3)GalNAc = target: GlcNAc(b1-3)GalNAc
# Summary of the method: as §1
# GlcNAc(b1-3)Man = target: GlcNAc(b1-3)Man
# Summary of the method: as §1
# [21] = target: GlcNAc(b1-3)[GlcNAc(b1-4)][GlcNAc(b1-6)]GlcNAc
# Summary of the method: as §1
# [22] = target: GlcNAc(b1-3)[GlcNAc(b1-6)]Gal(b1-4)GlcNAc
# Summary of the method: as §1
# [23] = target: GlcNAc(b1-3)[GlcNAc(b1-6)]GalNAc
# Summary of the method: as §1
# [24] = target: GlcNAc(b1-4)Gal(b1-4)GlcNAc
# Summary of the method: as §1
# GlcNAc(b1-4)GlcNAc = target: GlcNAc(b1-4)GlcNAc
# Summary of the method: as §1
# [25] = target: GlcNAc(b1-4)GlcNAc(b1-4)GlcNAc
# Summary of the method: as §1
# [26] = target: GlcNAc(b1-4)GlcNAc(b1-4)GlcNAc(b1-4)GlcNAc(b1-4)GlcNAc
# Summary of the method: as §1
# [27] = target: GlcNAc(b1-4)GlcNAc(b1-4)GlcNAc(b1-4)GlcNAc(b1-4)GlcNAc(b1-4)GlcNAc
# Summary of the method: as §1
# [28] = target: GlcNAc(b1-4)[GlcNAc(b1-6)]GalNAc
# Summary of the method: as §1
# [29] = target: GlcNAc(b1-6)Gal(b1-4)GlcNAc
# Summary of the method: as §1
# GlcNAc(b1-6)GalNAc = target: GlcNAc(b1-6)GalNAc
# Summary of the method: as §1
# [30] = target: GlcNAc6S(b1-3)Gal(b1-4)GlcNAc
# Summary of the method: as §1
# Kdn(a2-3)Gal(b1-3)GalNAc = target: Kdn(a2-3)Gal(b1-3)GalNAc
# Summary of the method: as §1
# Kdn(a2-3)Gal(b1-3)GlcNAc = target: Kdn(a2-3)Gal(b1-3)GlcNAc
# Summary of the method: as §1
binder,measurement,setting,value
B1,glycan array binding signal (z-score),GlcNAc(b1-3)Gal(b1-4)Glc,0.17
same,glycan array binding signal (z-score),[1],-0.233
same,glycan array binding signal (z-score),[2],-0.006
same,glycan array binding signal (z-score),[3],0.083
same,glycan array binding signal (z-score),[4],0.155
same,glycan array binding signal (z-score),[5],0.055
same,glycan array binding signal (z-score),[6],0.131
same,glycan array binding signal (z-score),[7],0.848
same,glycan array binding signal (z-score),[8],-0.141
same,glycan array binding signal (z-score),[9],-0.146
same,glycan array binding signal (z-score),[10],-0.318
same,glycan array binding signal (z-score),[11],0.006
same,glycan array binding signal (z-score),[12],-0.226
same,glycan array binding signal (z-score),[13],-0.027
same,glycan array binding signal (z-score),[14],0.133
same,glycan array binding signal (z-score),[15],-0.503
same,glycan array binding signal (z-score),[16],0.5
same,glycan array binding signal (z-score),[17],0.148
same,glycan array binding signal (z-score),[18],0.223
same,glycan array binding signal (z-score),[19],-0.227
same,glycan array binding signal (z-score),[20],-0.086
same,glycan array binding signal (z-score),GlcNAc(b1-3)GalNAc,-0.484
same,glycan array binding signal (z-score),GlcNAc(b1-3)Man,-0.188
same,glycan array binding signal (z-score),[21],-0.192
same,glycan array binding signal (z-score),[22],-0.304
same,glycan array binding signal (z-score),[23],-0.544
same,glycan array binding signal (z-score),[24],-0.193
same,glycan array binding signal (z-score),GlcNAc(b1-4)GlcNAc,-0.421
same,glycan array binding signal (z-score),[25],-0.575
same,glycan array binding signal (z-score),[26],-0.452
same,glycan array binding signal (z-score),[27],0.044
same,glycan array binding signal (z-score),[28],-0.019
same,glycan array binding signal (z-score),[29],0.154
same,glycan array binding signal (z-score),GlcNAc(b1-6)GalNAc,0.492
same,glycan array binding signal (z-score),[30],-0.262
same,glycan array binding signal (z-score),Kdn(a2-3)Gal(b1-3)GalNAc,-0.434
same,glycan array binding signal (z-score),Kdn(a2-3)Gal(b1-3)GlcNAc,-0.316
